{"source": "PubChem BioAssay AID504333", "about": "(National Center for Advancing Translational Sciences (NCATS), 2011)", "note": "Hit rate of the full screen: of about 360,000 compounds, about 16,000 (4.4%) were called active. Inconclusive results, whose numbers are uncertain, are shown with a selection of clear calls. The call rests on the fitted dose curve; in most records, active means well fitted inhibition curve with a large enough effect; inconclusive means small, poorly fitted or top-dose-only effect; inactive means no such curve, though single readings can be large or run the other way. Potencies of inconclusive entries are doubtful fits and often do not repeat. On the % scale 0 is the no-effect control and ±100 the full control effect; potency means the concentration at half of the fitted maximal effect; tags describe the fitted curve by direction and shape.", "data": [{"target": "Bromodomain adjacent to zinc finger domain protein 2B (Homo sapiens) (UniProt Q9UIF8)", "sequence (Q9UIF8 whole entry, looked up, the tested form may be a part)": "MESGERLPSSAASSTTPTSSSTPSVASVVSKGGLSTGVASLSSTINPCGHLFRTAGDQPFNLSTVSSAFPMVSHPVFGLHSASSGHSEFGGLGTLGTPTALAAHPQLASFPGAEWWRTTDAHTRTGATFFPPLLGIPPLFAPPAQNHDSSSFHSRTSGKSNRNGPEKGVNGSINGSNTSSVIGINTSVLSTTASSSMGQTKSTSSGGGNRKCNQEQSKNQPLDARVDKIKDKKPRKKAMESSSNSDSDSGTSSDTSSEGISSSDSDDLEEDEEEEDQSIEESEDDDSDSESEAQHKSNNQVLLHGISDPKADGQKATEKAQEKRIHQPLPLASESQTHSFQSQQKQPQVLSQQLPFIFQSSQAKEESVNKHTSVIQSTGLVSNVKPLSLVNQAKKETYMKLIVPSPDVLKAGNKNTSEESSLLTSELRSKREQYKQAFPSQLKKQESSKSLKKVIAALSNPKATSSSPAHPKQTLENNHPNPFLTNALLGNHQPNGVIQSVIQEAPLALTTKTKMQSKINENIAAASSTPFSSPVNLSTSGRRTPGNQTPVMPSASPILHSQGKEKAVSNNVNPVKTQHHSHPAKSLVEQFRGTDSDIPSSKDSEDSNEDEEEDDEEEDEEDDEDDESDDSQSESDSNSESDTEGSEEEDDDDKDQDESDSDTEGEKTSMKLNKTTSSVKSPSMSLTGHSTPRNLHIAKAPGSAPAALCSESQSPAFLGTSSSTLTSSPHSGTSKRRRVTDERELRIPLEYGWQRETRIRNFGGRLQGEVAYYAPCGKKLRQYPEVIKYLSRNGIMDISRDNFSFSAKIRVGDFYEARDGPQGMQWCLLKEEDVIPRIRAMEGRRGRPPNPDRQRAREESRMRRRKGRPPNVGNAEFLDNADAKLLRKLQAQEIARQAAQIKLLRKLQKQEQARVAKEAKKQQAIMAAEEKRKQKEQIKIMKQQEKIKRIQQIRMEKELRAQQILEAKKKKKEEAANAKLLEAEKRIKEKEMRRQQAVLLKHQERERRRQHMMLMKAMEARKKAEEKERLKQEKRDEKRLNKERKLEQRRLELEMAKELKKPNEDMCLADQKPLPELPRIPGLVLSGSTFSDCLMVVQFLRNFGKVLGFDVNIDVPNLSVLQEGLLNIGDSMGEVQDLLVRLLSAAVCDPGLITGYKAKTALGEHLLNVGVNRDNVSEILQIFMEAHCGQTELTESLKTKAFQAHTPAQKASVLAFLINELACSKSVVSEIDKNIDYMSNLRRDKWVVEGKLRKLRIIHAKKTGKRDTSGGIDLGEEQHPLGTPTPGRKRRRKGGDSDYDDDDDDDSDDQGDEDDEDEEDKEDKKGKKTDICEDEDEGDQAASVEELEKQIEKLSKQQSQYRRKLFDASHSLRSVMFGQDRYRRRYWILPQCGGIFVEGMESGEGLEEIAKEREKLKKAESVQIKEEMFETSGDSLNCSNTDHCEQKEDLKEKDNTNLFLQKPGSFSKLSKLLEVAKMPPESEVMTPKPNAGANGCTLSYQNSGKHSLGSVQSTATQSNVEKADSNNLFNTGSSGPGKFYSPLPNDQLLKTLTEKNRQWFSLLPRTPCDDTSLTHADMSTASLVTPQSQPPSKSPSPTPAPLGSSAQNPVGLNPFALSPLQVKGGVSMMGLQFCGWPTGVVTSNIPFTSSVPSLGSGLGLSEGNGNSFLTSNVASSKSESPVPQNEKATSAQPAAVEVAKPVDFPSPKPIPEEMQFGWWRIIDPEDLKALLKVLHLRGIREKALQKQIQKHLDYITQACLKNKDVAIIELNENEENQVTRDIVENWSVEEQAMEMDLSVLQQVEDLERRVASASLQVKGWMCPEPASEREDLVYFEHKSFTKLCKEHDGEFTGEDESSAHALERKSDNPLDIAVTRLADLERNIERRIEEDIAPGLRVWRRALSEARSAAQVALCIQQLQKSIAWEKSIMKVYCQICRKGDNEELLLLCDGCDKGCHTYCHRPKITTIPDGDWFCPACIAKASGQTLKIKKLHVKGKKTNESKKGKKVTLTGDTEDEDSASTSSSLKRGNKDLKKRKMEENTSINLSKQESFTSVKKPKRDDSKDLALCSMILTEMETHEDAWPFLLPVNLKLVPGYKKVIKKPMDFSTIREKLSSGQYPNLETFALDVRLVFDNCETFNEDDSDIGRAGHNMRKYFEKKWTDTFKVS", "assay": "qHTS Assay for Inhibitors of BAZ2B; further: nearly all actives have a fitted effect of over 60% in size", "conditions": "AlphaScreen BAZ2B-H3K14Ac peptide displacement; activity change, negative = inhibition: at 114 µM (top of the series)", "procedure,_shortened": "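Compounds, titrated to a top concentration of 110 uM, were incubated 30 min at room temperature with preformed BAZ2B/acetyl-K14 H3 peptide complex (50 nM each). Proximity signal was measured by AlphaScreen after 20 min with beads.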", "values": [{"smiles": "CCOc1ccccc1C(=O)N(C)Cc1cc2cc(OC)ccc2[nH]c1=O", "Potency": "inconclusive: 89.1 µM [inhibitor, single point]"}, {"smiles": "Cc1ccsc1/C=N/N1CCN(C2c3ccccc3-c3ccccc32)CC1", "Potency": "inconclusive: 31.6 µM [inhibitor, full curve]"}, {"smiles": "COc1cccc(CC2(CO)CCCN(Cc3[nH]c4ccc(C)cc4c3C)C2)c1", "note": "(centres undefined)", "Potency": "inconclusive: 44.7 µM [inhibitor, partial curve]"}, {"smiles": "CCC(CO)Oc1cc(NCc2ccccc2F)c2ncn(C(C)C)c2c1", "note": "(centres undefined)", "Potency": "inconclusive: 50.1 µM [inhibitor, partial curve]"}, {"smiles": "Cc1ccc(CN2CCN(/N=C/c3ccc(C)s3)CC2)cc1", "Potency": "active: 39.8 µM"}, {"smiles": "CCc1ccc(C(=O)c2cnc3ccc(F)cc3c2S(=O)(=O)c2ccccc2)cc1", "Potency": "inconclusive: 22.4 µM [inhibitor, full curve]"}, {"smiles": "CCOc1cc(/C=C2\\SC(=S)N(C(C(=O)O)c3ccccc3)C2=O)ccc1O", "note": "(centres undefined)", "activity change, negative = inhibition": "inactive: -20.4%"}, {"smiles": "CCCNC(=S)N1CCN(C)CC1", "Potency": "active: 39.8 µM"}, {"smiles": "Cc1c(C(=O)N2CCCCC2C)sc2nc3n(c(=O)c12)CCC3", "note": "(centres undefined)", "activity change, negative = inhibition": "inactive: -6.77%"}, {"smiles": "O=C(OCCCCN1C(=O)c2ccccc2C1=O)c1n[nH]c2ccccc12", "activity change, negative = inhibition": "inactive: 3.68%"}, {"smiles": "CCc1ccccc1-n1c(SCC(=O)N2CCCC2)nnc1-c1ccccn1", "Potency": "active: 56.2 µM"}, {"smiles": "COc1cc(C2N(c3ccccc3)CCN2c2ccccc2)cc(OC)c1OC", "Potency": "inconclusive: 44.7 µM [inhibitor, partial curve]"}, {"smiles": "O=C1c2ccccc2C(=O)C1c1ccccc1", "Potency": "inconclusive: 100 µM [inhibitor, partial curve]"}, {"smiles": "O=C(CCCN1C(=O)/C(=C/c2cccs2)SC1=S)Nc1ccccc1O", "activity change, negative = inhibition": "inactive: -11.9%"}, {"smiles": "O=C(O)CSc1ncnc2c1sc1nc(-c3ccccc3)c3c(c12)CCC3", "Potency": "active: 50.1 µM"}, {"smiles": "c1csc(Cc2nn3c(-c4n[nH]c5c4CCC5)nnc3s2)c1", "Potency": "inconclusive: 89.1 µM [inhibitor, single point]"}, {"smiles": "CCN1CCN(CCOCCOc2ccccc2)CC1", "Potency": "active: 79.4 µM"}, {"smiles": "COc1cccc(OC)c1OCCN1CCN(C(c2ccccc2)c2ccccc2)CC1", "Potency": "inconclusive: 50.1 µM [inhibitor, partial curve]"}, {"smiles": "O=C(O)C(=O)/C(=C\\c1ccc([N+](=O)[O-])cc1)c1ccc2ccccc2n1", "Potency": "inconclusive: 44.7 µM [inhibitor, partial curve]"}, {"smiles": "CN(C)c1ccc(/C=C/c2nc3ccccc3s2)cc1", "Potency": "active: 31.6 µM"}, {"smiles": "C/C(=N\\Nc1ccccc1C)c1cccnc1", "Potency": "inconclusive: 50.1 µM [inhibitor, partial curve]"}, {"smiles": "Cc1ccc(S(=O)(=O)Nc2cc(=O)[nH]c(SCc3ccccc3Cl)n2)cc1", "activity change, negative = inhibition": "inactive: -35.6%"}, {"smiles": "CNc1nc(OCC#N)nc(N2CCCCC2)n1", "Potency": "inconclusive: 79.4 µM [inhibitor, single point]"}, {"smiles": "N#Cc1c(C#N)c(-c2ccccc2)n(-c2ccc(C(=O)O)cc2)c1N", "Potency": "inconclusive: 79.4 µM [inhibitor, single point]"}, {"smiles": "CCOC(=O)C1(Cc2cccc(Cl)c2)CCCN(C(=O)c2cnn(CC)c2)C1", "note": "(centres undefined)", "activity change, negative = inhibition": "inactive: -4.19%"}, {"smiles": "Cc1ccc(C=Nc2ccccc2C(N)=O)o1", "activity change, negative = inhibition": "inactive: 7.5%"}, {"smiles": "Fc1ccc(-n2ncc3c(NCCCn4ccnc4)ncnc32)cc1", "activity change, negative = inhibition": "inactive: -21.6%"}, {"smiles": "Oc1ccc(C=Nc2ccc3ncccc3c2)c(O)c1", "Potency": "inconclusive: 89.1 µM [inhibitor, single point]"}, {"smiles": "NC(=O)c1cccc2c3c([nH]c12)CCCC3", "Potency": "inconclusive: 50.1 µM [inhibitor, partial curve]"}, {"smiles": "COc1ccc(CNC(=O)CSc2nnc(C)s2)cc1", "activity change, negative = inhibition": "inactive: 7.32%"}, {"smiles": "C[n+]1ccccc1/C=C/c1ccc2ncccc2c1", "Potency": "inconclusive: 89.1 µM [inhibitor, single point]"}, {"smiles": "O=C(O)c1cc(N/N=C/c2cccs2)ccc1Cl", "Potency": "inconclusive: 79.4 µM [inhibitor, partial curve]"}, {"smiles": "N#CC1(C#N)C2=C(CCCC2)NC(c2ccccc2)C1(C#N)C#N", "note": "(centres undefined)", "Potency": "active: 50.1 µM"}, {"smiles": "Cc1ccc(S(=O)(=O)Cc2sc3ccccc3[n+]2C)cc1", "Potency": "active: 50.1 µM"}, {"smiles": "Cc1ccc(N(Cc2ccc([N+](=O)[O-])cc2)C(=O)c2ccco2)cc1C", "Potency": "inconclusive: 31.6 µM [inhibitor, partial curve]"}, {"smiles": "O=S(=O)(c1ccc2nc(Cc3ccccc3)[nH]c2c1)N1CCOCC1", "Potency": "inconclusive: 3.98 µM [inhibitor, full curve, poor fit]"}, {"smiles": "O=S(=O)(c1ccc(Cl)s1)N1CCCc2cccc(O)c21", "activity change, negative = inhibition": "inactive: 14.8%"}, {"smiles": "CCOC(=O)c1c(CN2CCOCC2)oc2ccc(OC)cc12", "Potency": "inconclusive: 89.1 µM [inhibitor, single point]"}, {"smiles": "Cc1ccc(S(=O)(=O)N(C)CC(=O)NCC(c2ccc(F)cc2)N2CCOCC2)cc1", "note": "(centres undefined)", "Potency": "inconclusive: 0.794 µM [inhibitor, full curve, poor fit]"}, {"smiles": "O=C(Cc1cccs1)Nc1cccc(-c2nc3ccccc3o2)c1", "Potency": "inconclusive: 100 µM [inhibitor, single point]"}, {"smiles": "COc1ccc(OC)c(CCNC(=O)CCc2cn(Cc3cc(C)ccc3C)c3ccccc23)c1", "Potency": "inconclusive: 35.5 µM [inhibitor, partial curve]"}, {"smiles": "CCN(C(=O)COC(=O)c1cnc(C)cn1)c1c(N)n(Cc2ccccc2)c(=O)[nH]c1=O", "activity change, negative = inhibition": "inactive: -5.08%"}, {"smiles": "COc1ccccc1-c1nc(C(N)=O)c2[nH]c(=O)n(-c3cccc(C)c3)c2n1", "Potency": "inconclusive: 89.1 µM [inhibitor, single point]"}, {"smiles": "NC(=O)c1ccc(SCC(=O)OCC(=O)NCC2CCCCC2)c([N+](=O)[O-])c1", "activity change, negative = inhibition": "inactive: 8.09%"}, {"smiles": "O=C(CCCOc1ccccc1)N1CCN(c2ccccc2)CC1", "activity change, negative = inhibition": "inactive: -2.7%"}, {"smiles": "O=C(CSc1nc2ccccc2o1)Nc1nc(-c2ccccc2)c(-c2ccccc2)s1", "Potency": "inconclusive: 79.4 µM [inhibitor, single point]"}, {"smiles": "O=C(/C=C\\c1ccc(-c2ccccc2)o1)c1ccccc1", "Potency": "active: 31.6 µM"}, {"smiles": "COc1ccc(NC(=O)c2c3c(nc4ccccc24)CCN(Cc2ccccc2)C3)c(OC)c1", "Potency": "inconclusive: 44.7 µM [inhibitor, partial curve]"}, {"smiles": "COc1cc(C(=O)ON=C2C(C)=CC(=O)C=C2C)cc(OC)c1OC", "Potency": "inconclusive: 79.4 µM [inhibitor, single point]"}]}]}
